Experimental data taken from publication PMC12136788.
This is one part of the list.

T1: UNK ZnF1-6 (called full-length) (human, UniProt Q9C0B0 30-357)
T1 sequence: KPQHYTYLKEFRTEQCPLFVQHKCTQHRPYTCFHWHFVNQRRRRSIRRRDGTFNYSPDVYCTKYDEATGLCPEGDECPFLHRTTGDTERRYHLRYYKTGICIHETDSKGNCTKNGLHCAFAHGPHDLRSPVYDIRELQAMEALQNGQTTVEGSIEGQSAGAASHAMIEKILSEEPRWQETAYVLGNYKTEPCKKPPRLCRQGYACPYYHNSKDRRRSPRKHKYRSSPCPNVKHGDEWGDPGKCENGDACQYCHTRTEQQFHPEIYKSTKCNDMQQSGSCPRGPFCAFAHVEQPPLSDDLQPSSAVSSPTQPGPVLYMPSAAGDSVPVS

B1: chr7:27141837:27142085:-|CDS|ENSG00000106004|control|control|control (ssRNA)
RNA: GGGAGUUCUACAGUCCGACGAUCGGAGCUGGAGAAGGAGUUCCACUUCAACCGUUACCUGACCCGCAGAAGGAGGAUUGAAAUAGCACAUGCUCUUUGCCUCUCCGAGAGACAAAUUAAAAUCUGGUUCCAAAACCGGAGAAUCAACAGAGGAUUGAGCAUCA
B2: chr2:159433012:159433119:-|CDS|ENSG00000123636|unk|total|mutant (ssRNA)
RNA: GGGAGUUCUACAGUCCGACGAUCGCACUUACUACCAAAACUAAAAUGCAGAGCAAGAUUAAUGAAAACAUUGCUGCUGCAAGCCGCACCCCUUUUUCCUCACCUGUAAAUCUGAGUACAAGUGGGAGAAGAACCCCUGGCAAUCAACAGAGGAUUGAGCAUCA
B3: chr6:52498635:52498743:-|3pUTR|ENSG00000065308|msi1|FALSE|unique (ssRNA)
RNA: GGGAGUUCUACAGUCCGACGAUCAAAGGGACACGGAUUGUGACAGUUUCACCCCAUUUGUUUCUAACCCCGCUGCCCAGGAUUAGGGUCUGUGGUGUGUUCUGUUUUGUUUUUGGUUUCUCCCUUGUGUCAGUUCUCUUCUGGCAACAGAGGAUUGAGCAUCA
B4: ENSG00000120539:stop:overlap|stop_codon|ENSG00000120539|stop_codon|NA|stop_codon (ssRNA)
RNA: GGGAGUUCUACAGUCCGACGAUCCCUCCUAUUUUGAAGCCAGGAAUACUGCUCAGCACCUGACUGUAUCUGGAUUUAGUCUGUAGCACAAAAAUUUUCCUUUUAGUCUAGCCUUGUGUUAUAGAAUGAACUUGCAUAAUUAUACAACAGAGGAUUGAGCAUCA
B5: chr4:41955281:41955382:+|3pUTR|ENSG00000109133|msi1|total|mutant (ssRNA)
RNA: GGGAGUUCUACAGUCCGACGAUCGCCGGGGGAGGAGUUGUGGGGGAAUAAUGUGCAUUUCAGUCUCAACGCACCGAUAAAUUCCGGGGAAUUGGAUGUAUUAUUCAACUUUGAUUUGGGUUGUAAAAUGUGUUAAAUCCUGUUCAACAGAGGAUUGAGCAUCA
B6: chr1:156243319:156244403:-|three_prime_utr|ENSG00000160781|control|control|control (ssRNA)
RNA: GGGAGUUCUACAGUCCGACGAUCACCAACAGGGGCUGAGGAGAGAGGGCACAGGAGAGAGGGCAGAGAAGAGGAGGGGUGUCUAGGGGGACUGGCAGAGUGUGAGAGGGACCGUGAGGGGGCUCUUGAUGGGAGUGGAAGAAGCAACAGAGGAUUGAGCAUCA

biological target: T1, UNK ZnF1-6 (called full-length); test: nsRBNS (natural sequence RNA bind-n-seq); RBNS binding buffer (assumed for nsRBNS): 25 mM Tris pH 7.5, 150 mM KCl, 3 mM MgCl2, 0.01% Triton X-100, 500 ug/ml BSA, 20 U/ml SUPERase-In, 4 C; UNK is unkempt and MSI1 is Musashi-1; names of the RNAs are library labels; protein concentration not given here; high values mean tight binding

Row | Binder | binding signal [enrichment R]
1 | B1 | 0.606
2 | B2 | 0.494
3 | B3 | 0.598
4 | B4 | 0.634
5 | B5 | 1.02
6 | B6 | 1.38
